According to US20170368082A1, “FORMULATIONS OF BRINCIDOFOVIR” (priority 2016, published 2017):
The source gives many values for each of these; only a part stands here.

Experiment: Tissue distribution by quantitative whole-body autoradiography (QWBA)
Format: in vivo, male Sprague Dawley and Long-Evans rats
Conditions: LE rat, 2 mg/kg IV
Experimental: The study utilized 4 groups of male SD rats (albino), and 3 groups of male LE rats (pigmented); a total of 39 rats. All animals were obtained from Hilltop Lab Animals, Inc. (Scottdale, Pa.). […] Rats in Group 5 were administered a single 2-h IV infusion of [^14C]brincidofovir at a target dose of 2 mg/kg. […] Three dosing formulations (one for high dose IV, one for low dose IV, and one for PO dose) were prepared at QPS on the day of dosing. The IV formulation for Groups 1, 2, 3, and 4 contained a vehicle of 10 mM sodium phosphate buffer in 5% dextrose solution at pH 8.0(±0.1).
Each animal, at their respective termination time points, was euthanized for QWBA analysis immediately after blood collection. One rat per time point per Group was euthanized as listed below.
The blood samples were maintained on wet ice (approximately 4° C.) and then centrifuged to obtain plasma within 1 h of the blood collection time. Centrifuge settings were recorded in the study notebook. Duplicate aliquots of plasma (0.050 mL) were analyzed for radioactivity using direct counting by LSC, and residual plasma was stored at approximately −70° C. and was saved for possible future analysis under a separate study protocol. Residual red blood cells were discarded as radioactive waste.
The pinna, distal limbs, hair, and tail were removed from each frozen carcass and each frozen carcass was embedded in an aqueous suspension of approximately 2% (w/v) carboxymethylcellulose and frozen into a block. The blocks were stored at approximately −20° C. prior to sectioning. Each blocked carcass was mounted on the object stage of a cryomicrotome (Leica CM3600 Cryomacrocut, Nussloch, Germany and Vibratome 9800, St. Louis, Mo.) maintained at approximately −20° C. and internal standards (3), which were plasma fortified with [^14C]-glucose at one concentration (approximately 0.05 μCi/mL), were placed into the frozen blocks, prior to sectioning, and were used for section thickness quality control. A number of whole-body sections (approximately 40 μm thick) were taken in the sagittal plane at various levels of interest using a whole-body cryomicrotome set at −20° C. Sagittal sections (20-50 μm thick) of frozen carcasses were exposed to phosphor imaging plates. Regions of images in tissues were converted to concentrations using standards. All of the major tissues, organs, and biological fluids were represented.
Tissue concentration data was determined for the following tissues and/or contents: adipose (brown and white), adrenal gland, bile (in duct), blood (cardiac), bone, bone marrow, brain (cerebrum, cerebellum, medulla), cecum (and contents), large intestine (and contents), epididymis, esophagus, eye (uvea and lens), Harderian gland, heart, kidney (cortex and medulla), liver, lung, lymph node, pancreas, pituitary gland, prostate gland, salivary gland, seminal vesicles, skeletal muscle, skin (pigmented and non-pigmented), small intestine (and contents), stomach (gastric mucosa and contents), spleen, spinal cord, testis, thymus, thyroid, and urinary bladder (and contents).
The imaging plate and sections were placed in light-tight exposure cassettes, in a copper-lined lead safe, for a 4-day exposure at room temperature. […] Quantification was performed by image densitometry using MCD image analysis software (v. 7.0, Interfocus Imaging Ltd) and a standard curve constructed from the integrated response [i.e., Molecular Dynamics Counts per square millimeter (MDC/mm^2)] and the nominal concentrations of the ^14C-calibration standards. The concentrations of radioactivity were expressed as the μg equivalents of [^14C]brincidofovir per gram sample (μg equiv/g). A lower limit of quantification (LLOQ) was applied to the data (See section 6.7.4).
Tissue concentrations that fell below the LLOQ were identified as being below the quantification limit (BQL). Tissue areas that were not visualized on autoradiographic images were identified as no sample (NS) and reported as BQL.

CCCCCCCCCCCCCCCCOCCCOP(=O)(O)CO[C@H](CO)Cn1ccc(N)nc1=O [[^14C] brincidofovir]
Concentration of radioactivity (Liver, 24 h): 4.037 μg equiv/g tissue
Concentration of radioactivity (Liver, 72 h): 1.393 μg equiv/g tissue
Concentration of radioactivity (Lung, 2 h): 0.997 μg equiv/g tissue
Concentration of radioactivity (Lung, 8 h): 0.283 μg equiv/g tissue
Concentration of radioactivity (Lung, 24 h): 0.195 μg equiv/g tissue
Concentration of radioactivity (Lung, 72 h): 0.115 μg equiv/g tissue
Concentration of radioactivity (Lymph Node, 2 h): 0.453 μg equiv/g tissue
Concentration of radioactivity (Lymph Node, 8 h): 0.219 μg equiv/g tissue
Concentration of radioactivity (Lymph Node, 24 h): 0.149 μg equiv/g tissue
Concentration of radioactivity (Lymph Node, 72 h): 0.085 μg equiv/g tissue
Concentration of radioactivity (Pancreas, 2 h): 0.406 μg equiv/g tissue
Concentration of radioactivity (Pancreas, 8 h): 0.089 μg equiv/g tissue
Concentration of radioactivity (Pancreas, 24 h): 0.052 μg equiv/g tissue
Concentration of radioactivity (Pancreas, 72 h): 0.022 μg equiv/g tissue
Concentration of radioactivity (Pituitary Gland, 2 h): 0.899 μg equiv/g tissue
Concentration of radioactivity (Pituitary Gland, 8 h): 0.367 μg equiv/g tissue
Concentration of radioactivity (Pituitary Gland, 24 h): 0.089 μg equiv/g tissue
Concentration of radioactivity (Pituitary Gland, 72 h): 0.055 μg equiv/g tissue
Concentration of radioactivity (Plasma (by LSC), 2 h): 0.863 μg equiv/g tissue
Concentration of radioactivity (Plasma (by LSC), 8 h): 0.173 μg equiv/g tissue
Concentration of radioactivity (Plasma (by LSC), 24 h): 0.029 μg equiv/g tissue
Concentration of radioactivity (Plasma (by LSC), 72 h): 0.008 μg equiv/g tissue
Concentration of radioactivity (Prostate Gland, 2 h): 0.166 μg equiv/g tissue
Concentration of radioactivity (Prostate Gland, 8 h): 0.039 μg equiv/g tissue
Concentration of radioactivity (Prostate Gland, 24 h): 0.035 μg equiv/g tissue
Concentration of radioactivity (Prostate Gland, 72 h): 0.015 μg equiv/g tissue
Concentration of radioactivity (Salivary Gland, 2 h): 0.494 μg equiv/g tissue
Concentration of radioactivity (Salivary Gland, 8 h): 0.111 μg equiv/g tissue
Concentration of radioactivity (Salivary Gland, 24 h): 0.071 μg equiv/g tissue
Concentration of radioactivity (Salivary Gland, 72 h): 0.030 μg equiv/g tissue
Concentration of radioactivity (Seminal Vesicles, 2 h): 0.364 μg equiv/g tissue
Concentration of radioactivity (Seminal Vesicles, 8 h): 0.304 μg equiv/g tissue
Concentration of radioactivity (Seminal Vesicles, 24 h): 0.327 μg equiv/g tissue
Concentration of radioactivity (Seminal Vesicles, 72 h): 0.172 μg equiv/g tissue
Concentration of radioactivity (Skeletal Muscle, 2 h): 0.167 μg equiv/g tissue
Concentration of radioactivity (Skeletal Muscle, 8 h): 0.023 μg equiv/g tissue
Concentration of radioactivity (Skeletal Muscle, 24 h): 0.017 μg equiv/g tissue
Concentration of radioactivity (Skeletal Muscle, 72 h): 0.007 μg equiv/g tissue
Concentration of radioactivity (Skin (non-pigmented), 2 h): 0.288 μg equiv/g tissue
Concentration of radioactivity (Skin (non-pigmented), 8 h): 0.268 μg equiv/g tissue
Concentration of radioactivity (Skin (non-pigmented), 24 h): 0.108 μg equiv/g tissue
Concentration of radioactivity (Skin (non-pigmented), 72 h): 0.068 μg equiv/g tissue
Concentration of radioactivity (Skin (pigmented), 2 h): 0.460 μg equiv/g tissue
Concentration of radioactivity (Skin (pigmented), 8 h): 0.186 μg equiv/g tissue
Concentration of radioactivity (Skin (pigmented), 24 h): 0.116 μg equiv/g tissue
Concentration of radioactivity (Skin (pigmented), 72 h): 0.047 μg equiv/g tissue
Concentration of radioactivity (Small Intestine (contents), 2 h): 63.303 μg equiv/g tissue
Concentration of radioactivity (Small Intestine (contents), 8 h): 1.982 μg equiv/g tissue
Concentration of radioactivity (Small Intestine (contents), 24 h): 0.207 μg equiv/g tissue
Concentration of radioactivity (Small Intestine (contents), 72 h): 0.032 μg equiv/g tissue
Concentration of radioactivity (Small Intestine, 2 h): 1.710 μg equiv/g tissue
Concentration of radioactivity (Small Intestine, 8 h): 2.462 μg equiv/g tissue
Concentration of radioactivity (Small Intestine, 24 h): 0.704 μg equiv/g tissue
Concentration of radioactivity (Small Intestine, 72 h): 0.076 μg equiv/g tissue
Concentration of radioactivity (Spinal Cord, 2 h): 0.151 μg equiv/g tissue
Concentration of radioactivity (Spinal Cord, 8 h): 0.024 μg equiv/g tissue
Concentration of radioactivity (Spinal Cord, 24 h): 0.011 μg equiv/g tissue
Concentration of radioactivity (Spinal Cord, 72 h): 0.006 μg equiv/g tissue
Concentration of radioactivity (Spleen, 2 h): 0.821 μg equiv/g tissue
Concentration of radioactivity (Spleen, 8 h): 0.561 μg equiv/g tissue
Concentration of radioactivity (Spleen, 24 h): 0.358 μg equiv/g tissue
Concentration of radioactivity (Spleen, 72 h): 0.284 μg equiv/g tissue
Concentration of radioactivity (Stomach (contents), 2 h): 0.014 μg equiv/g tissue
Concentration of radioactivity (Stomach (contents), 8 h): 0.051 μg equiv/g tissue
Concentration of radioactivity (Stomach (contents), 24 h): 0.006 μg equiv/g tissue
Concentration of radioactivity (Stomach (contents), 72 h): 0.008 μg equiv/g tissue
Concentration of radioactivity (Stomach (gastric mucosa), 2 h): 0.553 μg equiv/g tissue
Concentration of radioactivity (Stomach (gastric mucosa), 8 h): 0.122 μg equiv/g tissue
Concentration of radioactivity (Stomach (gastric mucosa), 24 h): 0.077 μg equiv/g tissue
Concentration of radioactivity (Stomach (gastric mucosa), 72 h): 0.031 μg equiv/g tissue
Concentration of radioactivity (Testis, 2 h): 0.231 μg equiv/g tissue
Concentration of radioactivity (Testis, 8 h): 0.091 μg equiv/g tissue
Concentration of radioactivity (Testis, 24 h): 0.076 μg equiv/g tissue
Concentration of radioactivity (Testis, 72 h): 0.041 μg equiv/g tissue
Concentration of radioactivity (Thymus, 2 h): 0.331 μg equiv/g tissue
Concentration of radioactivity (Thymus, 8 h): 0.136 μg equiv/g tissue
Concentration of radioactivity (Thymus, 24 h): 0.078 μg equiv/g tissue
Concentration of radioactivity (Thymus, 72 h): 0.050 μg equiv/g tissue
Concentration of radioactivity (Thyroid, 2 h): 0.348 μg equiv/g tissue
Concentration of radioactivity (Thyroid, 8 h): 0.157 μg equiv/g tissue
Concentration of radioactivity (Thyroid, 24 h): 0.105 μg equiv/g tissue
Concentration of radioactivity (Thyroid, 72 h): 0.056 μg equiv/g tissue
Concentration of radioactivity (Urinary Bladder (contents), 2 h): 22.905 μg equiv/g tissue
Concentration of radioactivity (Urinary Bladder (contents), 8 h): 3.544 μg equiv/g tissue
Concentration of radioactivity (Urinary Bladder (contents), 24 h): 1.348 μg equiv/g tissue
Concentration of radioactivity (Urinary Bladder (contents), 72 h): 0.249 μg equiv/g tissue
Concentration of radioactivity (Urinary Bladder, 2 h): 0.474 μg equiv/g tissue
Concentration of radioactivity (Urinary Bladder, 8 h): 0.519 μg equiv/g tissue
Concentration of radioactivity (Urinary Bladder, 24 h): 0.253 μg equiv/g tissue
Concentration of radioactivity (Urinary Bladder, 72 h): 0.117 μg equiv/g tissue
